Hit rate of the full screen: of about 310,000 compounds, about 2,200 (0.71%) showed an effect of 50% or more. The effect is printed as a negative number. The list shows a part of the results.

human ether-à-go-go-related gene (hERG) potassium channel, sequence (Q12809 whole entry, looked up): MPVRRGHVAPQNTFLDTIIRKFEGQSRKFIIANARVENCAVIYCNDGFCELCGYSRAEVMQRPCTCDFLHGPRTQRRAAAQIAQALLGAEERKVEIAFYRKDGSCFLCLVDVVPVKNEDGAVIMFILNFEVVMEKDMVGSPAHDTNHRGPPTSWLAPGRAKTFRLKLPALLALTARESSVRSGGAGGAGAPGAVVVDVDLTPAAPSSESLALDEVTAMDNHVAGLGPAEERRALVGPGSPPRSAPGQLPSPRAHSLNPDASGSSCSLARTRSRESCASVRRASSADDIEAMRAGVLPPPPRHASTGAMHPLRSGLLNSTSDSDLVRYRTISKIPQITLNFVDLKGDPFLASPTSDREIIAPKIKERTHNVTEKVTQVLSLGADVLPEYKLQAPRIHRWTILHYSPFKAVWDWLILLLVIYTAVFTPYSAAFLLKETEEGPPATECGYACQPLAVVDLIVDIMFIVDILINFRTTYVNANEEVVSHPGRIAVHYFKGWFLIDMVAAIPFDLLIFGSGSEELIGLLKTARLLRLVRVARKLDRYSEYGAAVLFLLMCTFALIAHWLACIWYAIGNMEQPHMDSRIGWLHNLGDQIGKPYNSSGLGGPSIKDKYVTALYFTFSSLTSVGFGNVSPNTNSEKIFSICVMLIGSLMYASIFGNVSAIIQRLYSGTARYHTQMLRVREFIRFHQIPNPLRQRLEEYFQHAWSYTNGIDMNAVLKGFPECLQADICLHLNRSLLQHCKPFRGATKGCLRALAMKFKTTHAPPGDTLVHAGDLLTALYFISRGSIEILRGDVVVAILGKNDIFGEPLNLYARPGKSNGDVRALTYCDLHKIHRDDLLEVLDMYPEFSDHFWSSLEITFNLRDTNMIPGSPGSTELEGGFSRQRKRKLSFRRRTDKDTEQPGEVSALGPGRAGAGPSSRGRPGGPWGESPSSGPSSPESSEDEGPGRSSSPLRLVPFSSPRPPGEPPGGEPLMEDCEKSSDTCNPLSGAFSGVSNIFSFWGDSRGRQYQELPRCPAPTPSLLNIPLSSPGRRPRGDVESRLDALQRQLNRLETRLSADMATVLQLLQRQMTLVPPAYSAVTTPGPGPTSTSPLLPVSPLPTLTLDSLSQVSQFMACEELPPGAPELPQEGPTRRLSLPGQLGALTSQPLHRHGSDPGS

This assay addresses human ether-à-go-go-related gene (hERG) potassium channel (human, UniProt Q12809). Description: primary screen, population patch clamp on CHO cells stably expressing hERG.
`Cl.NC1=NC2(CCCCC2)N(c2ccc(F)cc2F)C(N)=N1`: the “hERG current change (%, negative = inhibition) at 1uM” value stood at 12.7%.
The figure for `CN(CC(=O)NC1CCCCC1)S(=O)(=O)c1ccc(Cl)cc1` is -8.33%; for `O=C(NC1CCCC1)C1c2ccccc2C(=O)N1CCCN1CCOCC1` (centres unmarked) it is 1.61%.
As for `CC(=O)/C=C1\SC(CC(=O)O)C(=O)N1c1ccccc1` (centres unmarked), the figure is 14.8%; as for `Nc1ccc(Sc2nc3ccccc3[nH]2)cc1`, 10.5%.
For `FC(F)(F)c1cc(-c2ccc(Cl)cc2)nc2ncnn12`, the “hERG current change (%, negative = inhibition) at 1uM” value was -3.37%.
With `Cc1ccc(C23CC4CC(CC(C(N)=O)(C4)C2)C3)cc1`, the “hERG current change (%, negative = inhibition) at 1uM” value is given as 13.4%.
Turning to `COC(=O)c1ccc(CS(=O)(=O)c2ccccc2C)o1`, the “hERG current change (%, negative = inhibition) at 1uM” value was 2.66%.
As to `CCOC(=O)c1c(-c2ccncc2)csc1N`, the “hERG current change (%, negative = inhibition) at 1uM” value is given as 8.1%.
As for `CCOC(=O)C1=C(C)OC(N)=C(C#N)C1C1CCCCC1` (centres unmarked), the figure is 3.26%; as for `Nn1c(SCc2nc3ccccc3[nH]2)nnc1C1CCCCC1`, 3.15%.
As for `CCc1cc2c(=O)n(-c3ccc(C)cc3)cnc2s1`, the figure is -0.45%; as for `CC(=O)c1ccc(N(C(=O)c2ccco2)C(C(=O)NC2CCCC2)c2cccs2)cc1` (centres unmarked), -3.62%; as for `CC(C)=C(NC(=O)c1ccccc1)C(=O)NC(Cc1ccccc1)C(=O)O` (centres unmarked), 16.2%.
The figure for `CCOC(=O)c1c(C)[nH]c(C)c1C(=O)COC(=O)c1cc(OC)cc(OC)c1` is 15.4%.
Regarding `Cc1cc(C)n(-c2nnc(C)c(=O)[nH]2)n1`, the “hERG current change (%, negative = inhibition) at 1uM” value is listed as -2.17%.
`Cc1cccc(NCc2ccc(O)c3ncccc23)c1C`: the “hERG current change (%, negative = inhibition) at 1uM” value is 9.87%.
The figure for `Cc1noc(C)c1COc1cccc(C(=O)Nc2ccccc2)c1` is 16.3%; for `COC(=O)c1cccc(NS(=O)(=O)c2cccs2)c1C` it is 4.58%; for `O=C(COC(=O)C1CC2CCCC(C1)C2=O)c1cccc(Br)c1` (centres unmarked) it is 3.59%.
The figure for `COc1ccc(OC)c(NC(=O)c2cc(-c3cc(C)ccc3O)n[nH]2)c1` is 16.3%; for `COc1ccc(OC2C(=O)N(c3ccc(C)c(C)c3)C2c2ccc(OC)c(OC)c2)cc1` (centres unmarked) it is 15%.
As for `COc1ccc(-c2cc(C(=O)N/N=C/c3ccc(OC)c(COCC(F)(F)C(F)F)c3)c3ccccc3n2)c(OC)c1`, the figure is 19.1%; as for `COc1ccc(CCNC(=S)NC2CCN(Cc3ccccc3)CC2)cc1OC`, 4.6%.
`COc1ccc(NC(=O)CN(C)C(=O)c2sc3ccccc3c2Cl)cc1`: the “hERG current change (%, negative = inhibition) at 1uM” value amounted to 13.6%.
The figure for `COc1ccc(C(=O)NC(=S)Nc2cccc(NC(=O)c3ccco3)c2)cc1[N+](=O)[O-]` is -0.152%; for `Cn1c(=Nc2ccc(N3CCOCC3)cc2)ccc2ccccc21` it is -1.7%.
As for `N/C(=N\OC(=O)COc1ccccc1Cl)c1ccccn1`, the figure is 20.8%; as for `COc1ccc(CC2(CO)CCN(Cc3cccn3-c3ccccn3)CC2)cc1`, -84.2%; as for `Cc1cc(OC(C)C(=O)NCCN2CCOCC2)c2c(C)cc(=O)oc2c1` (centres unmarked), 17.7%.
The figure for `Nc1ncnc2c1ncn2[C@@H]1O[C@H](CO)[C@@H](O)[C@H]1O` is 15%; for `O=C(Nc1ccc2oc(-c3ccccc3F)nc2c1)c1ccc2c(c1)OCCO2` it is 3.14%.
`COc1ccc(NC(=O)CCC(=O)N(Cc2ccc(OC)c(OC)c2)c2nccs2)cc1`: the “hERG current change (%, negative = inhibition) at 1uM” value was determined as 14.5%.
The figure for `C/C(CC(=O)Nc1ccc2c(c1)OCO2)=N\NC(=O)c1ccccc1N` is 9.31%; for `CC(Oc1ccccc1)C(=O)N1CCN(c2ccc(N3CCCCC3)nn2)CC1` (centres unmarked) it is 4.79%; for `COCC(=O)NCCc1ccc(S(N)(=O)=O)cc1` it is 17.3%.
As for `CCOc1cc(N2CCOCC2)c(OCC)cc1NC(=O)CN1C(=O)C2CC=CCC2C1=O` (centres unmarked), the figure is 6.39%.
As for `[O-][n+]1onc2c1CCc1c-2nc(-c2ccccc2)n1OCc1ccccc1`, the figure is 10.8%; as for `Cc1ccnc(NC(=S)NC(=O)/C=C/c2ccco2)c1`, 11.6%; as for `CC(=O)N1CCC(C(=O)Nc2ccc(S(=O)(=O)NCCc3ccccc3)cc2)CC1`, 16.4%.
As to `CC(NC(=O)/C(C#N)=C/c1ccc(OCC(=O)O)cc1)c1ccccc1` (centres unmarked), the “hERG current change (%, negative = inhibition) at 1uM” value came to 16.1%.
The figure for `COc1ccc(COC(=O)Nc2cc3c(C(F)(F)F)nn(C)c3s2)cc1` is 18.5%; for `CCCC(=O)NC1=C(C#N)C2(CCCC2)Cc2ccccc21` it is 9.61%; for `O=C(Cc1ccccc1)N/N=C/c1cc(Br)cc(Cl)c1O` it is 9.33%.
As for `CCn1c(=O)c([N+](=O)[O-])c(N2CCSCC2)c2ccccc21`, the figure is 9.63%; as for `Cc1csc2c(=O)sc(NC(=O)c3cccs3)nc12`, 8.61%; as for `COc1ccc(C)cc1NC(C)C(=O)NC(=O)NC1CCCCC1` (centres unmarked), 11.6%.
As for `COc1cc(C(=O)NCC(=O)Nc2c(C)cccc2C)ccc1OCc1ccccc1`, the figure is -0.468%.
`CC1Nc2ccccc2C(=O)N1NS(=O)(=O)c1ccccc1` (centres unmarked): the “hERG current change (%, negative = inhibition) at 1uM” value came out at 0.585%.
As for `CCOC(=O)c1ccc(NC(=O)CN2C(=O)CNC2=O)cc1`, the “hERG current change (%, negative = inhibition) at 1uM” value worked out at 16.9%.
The figure for `CC(C)COc1ccc(C(=O)OC2CC(C)(C)OCC2CN(C)C)cc1.Cl` (centres unmarked) is 7.34%.
As for `O=c1ccc(-c2ccc(S(=O)(=O)Nc3ccc(F)cc3)s2)n[nH]1`, the figure is -1.8%; as for `COc1ccc(OC2CCN(S(=O)(=O)c3ccc(F)cc3)CC2)cc1`, 6.67%.
The figure for `O=C(Nc1nc2ccsc2c(=O)s1)c1ccc(F)cc1Cl` is 4.39%; for `CCOC(=O)C1=C(c2ccc(OC)cc2)OC(N)=C(C#N)C1c1cccnc1` (centres unmarked) it is 11.6%.
Consider `Nc1ccc(S(N)(=O)=O)cc1N.O=S(=O)(O)O`, for which the “hERG current change (%, negative = inhibition) at 1uM” value came out at 14.2%.
The figure for `O=C(CSc1nccc(=O)[nH]1)NCc1ccc2c(c1)OCO2` is 12.8%.
The figure for `CC1CCC(NC(=O)C2CC(=O)N(c3ccc4c(c3)OCCO4)C2)CC1` (centres unmarked) is 13.8%; for `COC(=O)c1cc(-c2ccc(S(=O)(=O)N3CCCCC3)cc2)c(C(F)(F)F)s1` it is -4.67%.
The figure for `CCC(=O)c1ccc(OC(=O)c2cnccn2)cc1` is 15.8%.
For `COC(=O)CCC(=O)Nc1ccccc1C(N)=O`, the “hERG current change (%, negative = inhibition) at 1uM” value is reported as 13.2%.
For `CC(C)(C)NC(=O)C1CCC(CNS(=O)(=O)c2cccc3nsnc23)CC1` (centres unmarked), the “hERG current change (%, negative = inhibition) at 1uM” value is 6.75%.
With `COc1ccc(-n2c(COc3ccccc3)nnc2SCC(N)=O)cc1`, the “hERG current change (%, negative = inhibition) at 1uM” value is reported as 10.3%.
As for `O=C(CN1C(=O)NC2(CCSC2)C1=O)N1CCN(c2ccc(F)cc2)CC1` (centres unmarked), the figure is -3.67%; as for `NC1=Nc2cccc3cccc1c23`, 12.8%.
Take `Cc1cccc(-c2cccc(NC(=O)C3CCCN(C(=O)c4csc(C)n4)C3)c2)c1` (centres unmarked): the “hERG current change (%, negative = inhibition) at 1uM” value is 10.2%.
Consider `O=C(NCCOc1ccccc1)C1CCCCC1`, for which the “hERG current change (%, negative = inhibition) at 1uM” value stood at 12.1%.
The figure for `O=C(/C=C/c1ccc(Cl)cc1)NC(=S)Nc1ccccc1C(=O)O` is 12.2%; for `Cc1nc(CSc2nnc(C)s2)cs1` it is -5.67%.
As to `c1ccc(-c2cncnc2)nc1`, the “hERG current change (%, negative = inhibition) at 1uM” value amounted to 7.42%.
For `CCOC(=O)n1c(=O)[nH]c2ccc(Br)cc21`, the “hERG current change (%, negative = inhibition) at 1uM” value is given as 7.43%.
As for `CC(C)n1c(=NC(=O)c2ccco2)c(C#N)cc2c(=O)n3ccccc3cc21`, the figure is -16.1%; as for `O=C(c1ccc(COc2c(F)c(F)c(F)c(F)c2F)o1)N1CCN(Cc2ccc3c(c2)OCO3)CC1`, 5.12%; as for `COc1cccc(N2C(=O)Nc3ccc(Br)cc3C2(O)C(=O)NCCN(C)C)c1` (centres unmarked), 13.4%.
As for `COc1cc(NC(=O)c2ccc(-c3ccc(Br)cc3)o2)ccc1NC(=O)C(C)C`, the figure is 3.88%; as for `CCc1ccc(OC(C)C(=O)N(Cc2ccccc2)C2CCS(=O)(=O)C2)cc1` (centres unmarked), 4.42%.
The figure for `Cc1ccc(C)c(OCC(=O)NCCNC(=O)COc2cc(C)ccc2C)c1` is 7.04%.
Take `COc1cc(/C=N/n2c(-c3n[nH]c4c3CCC4)n[nH]c2=S)cc(OC)c1O`: the “hERG current change (%, negative = inhibition) at 1uM” value came out at 15.5%.
As for `O=C(CCc1nnc2ccc(NCc3ccco3)nn12)Nc1ccc(F)cc1`, the figure is 8.96%.
As for `COc1ccc(S(=O)(=O)Nc2ccccc2C(=O)OC2CCCN(C)C2)cc1OC.Cl` (centres unmarked), the figure is 11.7%; as for `COc1cccc(C2C(C(=O)c3cccs3)=C(O)C(=O)N2CCN(C)C)c1OC` (centres unmarked), -0.698%; as for `N#Cc1c(-c2ccco2)nc(NCC2CCCO2)[nH]c1=O` (centres unmarked), 3.22%.
For `Cn1c(SCC(=O)Nc2nccs2)nnc1-c1ccccn1`, the “hERG current change (%, negative = inhibition) at 1uM” value stood at 14.1%.
The figure for `C#CCOCCOCCOCCNc1nc(N2CCN(C(=O)C([C@@H](C)CC)n3cc(C(N)CC(C)C)nn3)CC2)nc(N2CCN(C(=O)[C@H](CCC(=O)O)n3cc(C(N)Cc4ccc(O)cc4)nn3)CC2)n1.Cl` (some centres unmarked) is 6.87%; for `COCC(C)n1c(SCc2cc(=O)n3cc(C)ccc3n2)nc2ccccc2c1=O` (centres unmarked) it is 0.472%.
The figure for `CCS(=O)(=O)N1CCN(c2cccc(C)c2C)CC1` is 7.08%; for `Cc1cc(NC(=O)c2cc(-c3ccc(C)s3)nc3ccccc23)no1` it is 8.26%.
As for `CC(=O)c1cccc(NC(=O)C2CCN(C(=O)c3ccc([N+](=O)[O-])cc3)CC2)c1`, the figure is -34.2%.
Take `CC(=O)N(Cc1cccnc1)c1cccc(-c2nc3ccccc3s2)c1`: the “hERG current change (%, negative = inhibition) at 1uM” value is -22.4%.

For the origin of these results see article PMC4336329 (PLoS ONE, 2015).
